Data on 31 molecules can be found in PubChem BioAssay AID1240 (Sanford-Burnham Center for Chemical Genomics, 2008).

Structures are written as SMILES. Out of some 50,000 compounds screened, about 800 (1.6%) showed an effect of 50% or more. Some of the results follow.

This test addresses Bcl-2-like protein 10 (Homo sapiens) (UniProt Q9HD36). Description: TR3 peptide-Bcl-B binding displacers, biochemical primary FP assay, phenotype converters (AID 1240).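 Also: 0% = Bcl-B with tracer peptide and DMSO and 100% = tracer peptide lacking Bcl-B.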 To be noted: GST-Bcl-B / FITC-TR3 peptide fluorescence polarization; stronger effect = higher value; compound at 3.75 mg/L. On the technique in general: Polarisation of emitted light reports the rotation of a fluorescent probe.
Chain of UniProt Q9HD36 (Q9HD36 whole entry, looked up): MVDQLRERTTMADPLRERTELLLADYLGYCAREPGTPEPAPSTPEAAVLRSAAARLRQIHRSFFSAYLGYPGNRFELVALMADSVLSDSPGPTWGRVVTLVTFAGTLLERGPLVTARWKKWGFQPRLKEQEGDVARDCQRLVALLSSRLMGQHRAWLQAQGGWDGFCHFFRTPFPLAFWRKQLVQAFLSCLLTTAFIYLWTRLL
As to `C=CCN(CP(C)(=O)OC(C)C)C(C)=O` (stereo unspecified), the displacement came out at 17.3%.

With `O=C(/C=C\Nc1ccc2c(c1)OCO2)c1ccc(F)cc1`, the displacement is -2.4%.

As for `CCN(CC)c1ccc(/C=C2\C(=O)NC(=O)N(c3ccc(Br)c(C)c3)C2=O)o1`, the displacement was 42.6%.

For the molecule `CC1CCc2c(sc(NC(=O)c3cccc(Br)c3)c2C(N)=O)C1` (stereo unspecified), the displacement was -4.3%.

As for `CCOC(=O)c1cc2c3c(c1)C1C=CCC1C(c1ccc([N+](=O)[O-])cc1)N3CC1CC=CC21` (stereo unspecified), the displacement worked out at 5.7%.

Consider `O=c1[nH]c(=S)[nH]c2sc3c(c12)CCc1ccccc1-3`, for which the displacement was -10.4%.

As for `CSc1nc2ccc(NC(=O)c3cccs3)cc2s1`, the displacement is -14.3%.

For `Cc1cc(/C=N\Nc2ccc([N+](=O)[O-])cn2)c(C)n1-c1ccc(O)cc1`, the displacement was -0.4%.

For the molecule `O=C(CC(c1ccccc1)c1ccccc1)N1CCN(c2ccccc2)CC1`, the displacement was -1.3%.

Regarding `COCCCNCCCCOc1c(C)cc(C)cc1C`, the displacement stood at 7.3%.

Take `Cc1ccccc1NCC(=O)N/N=C\c1c(O)ccc2ccccc12`: the displacement was -8.9%.

Turning to `NC(=O)C(Cc1ccccc1)N1CC(=O)NC(=O)C1` (stereo unspecified), the displacement is 2.2%.

In the case of `NC(=O)NC(Cc1ccccc1)c1ccccc1` (stereo unspecified), the displacement amounted to 7.2%.

`CCN1C(=O)/C(=C/c2ccc(C(C)(C)C)cc2)SC1=S`: the displacement is 6.4%.

With `CC(=O)C1=C(C)NC(=S)NC1c1cc([N+](=O)[O-])ccc1O` (stereo unspecified), the displacement was determined as 18.9%.

Turning to `COc1ccc(S(=O)(=O)NNC(=O)C(=O)Nc2ccccn2)cc1`, the displacement was -6.4%.

In the case of `CCOc1ccc(C(=O)Nc2ccc3oc(-c4cccc(C)c4)nc3c2)cc1`, the displacement stood at 24.1%.

On to `COc1ccc(C)cc1C(=O)CCC(=O)O`, for which the displacement stood at 10.6%.

With `CC1=CC(C)(C)Nc2ccc(OC(=O)c3ccc(Cl)c([N+](=O)[O-])c3)cc21`, the displacement was found to be 8.5%.

Regarding `COc1ccc(CC(=O)NNC(=O)c2ccco2)cc1OC`, the displacement was -9.6%.

With `O=C1NC(=Nc2cccc(O)c2)S/C1=C/C(Cl)=C/c1ccc([N+](=O)[O-])cc1`, the displacement came out at 4.1%.

As for `N#Cc1ccccc1NC(=O)c1ccc(-c2ccccc2)cc1`, the displacement was determined as 12.6%.

In the case of `CCOc1cc(C2C(C(=O)OC)=C(C)NC(C)=C2C(=O)OC)ccc1O`, the displacement worked out at 0.1%.

Consider `O=C(Nc1cccc(O)c1)/C(=C\c1cccnc1)NC(=O)c1ccccc1`, for which the displacement worked out at 0.4%.

Turning to `CCCOC(=O)c1ccc(NC(=O)COc2ccc(OC)cc2)cc1`, the displacement is -3.1%.

As to `Cc1ccc(C2Nc3ccccc3NC3=C2C(=O)CC(c2ccc(Cl)cc2)C3)cc1` (stereo unspecified), the displacement is 33.9%.

On to `CNC(=S)NC12CC3CC(CC(C3)C1)C2`, for which the displacement was determined as 15.4%.

As for `CCOc1ccccc1C(=O)NCc1ccco1`, the displacement stood at 10.5%.

`O=C(NCc1ccco1)c1cc(-c2ccco2)nc2ccccc12`: the displacement was 29.9%.

For the molecule `O=C(Nc1ccc(O)c(-c2nc3ccccc3o2)c1)c1cc2ccccc2o1`, the displacement was -10.8%.

Turning to `COc1ccc(C2NC(=O)NC3=C2C(=O)N(Cc2ccccc2)C3)cc1` (stereo unspecified), the displacement was -11.1%.
